About 14,000 (4.5%) of roughly 310,000 compounds showed an effect of 50% or more. Effects have a minus sign here. The list shows a part of the results.
The compounds below were run against human ether-à-go-go-related gene (hERG) potassium channel (human, UniProt Q12809) (assay: primary screen, population patch clamp on CHO cells stably expressing hERG).
Sequence of human ether-à-go-go-related gene (hERG) potassium channel (Q12809 whole entry, looked up): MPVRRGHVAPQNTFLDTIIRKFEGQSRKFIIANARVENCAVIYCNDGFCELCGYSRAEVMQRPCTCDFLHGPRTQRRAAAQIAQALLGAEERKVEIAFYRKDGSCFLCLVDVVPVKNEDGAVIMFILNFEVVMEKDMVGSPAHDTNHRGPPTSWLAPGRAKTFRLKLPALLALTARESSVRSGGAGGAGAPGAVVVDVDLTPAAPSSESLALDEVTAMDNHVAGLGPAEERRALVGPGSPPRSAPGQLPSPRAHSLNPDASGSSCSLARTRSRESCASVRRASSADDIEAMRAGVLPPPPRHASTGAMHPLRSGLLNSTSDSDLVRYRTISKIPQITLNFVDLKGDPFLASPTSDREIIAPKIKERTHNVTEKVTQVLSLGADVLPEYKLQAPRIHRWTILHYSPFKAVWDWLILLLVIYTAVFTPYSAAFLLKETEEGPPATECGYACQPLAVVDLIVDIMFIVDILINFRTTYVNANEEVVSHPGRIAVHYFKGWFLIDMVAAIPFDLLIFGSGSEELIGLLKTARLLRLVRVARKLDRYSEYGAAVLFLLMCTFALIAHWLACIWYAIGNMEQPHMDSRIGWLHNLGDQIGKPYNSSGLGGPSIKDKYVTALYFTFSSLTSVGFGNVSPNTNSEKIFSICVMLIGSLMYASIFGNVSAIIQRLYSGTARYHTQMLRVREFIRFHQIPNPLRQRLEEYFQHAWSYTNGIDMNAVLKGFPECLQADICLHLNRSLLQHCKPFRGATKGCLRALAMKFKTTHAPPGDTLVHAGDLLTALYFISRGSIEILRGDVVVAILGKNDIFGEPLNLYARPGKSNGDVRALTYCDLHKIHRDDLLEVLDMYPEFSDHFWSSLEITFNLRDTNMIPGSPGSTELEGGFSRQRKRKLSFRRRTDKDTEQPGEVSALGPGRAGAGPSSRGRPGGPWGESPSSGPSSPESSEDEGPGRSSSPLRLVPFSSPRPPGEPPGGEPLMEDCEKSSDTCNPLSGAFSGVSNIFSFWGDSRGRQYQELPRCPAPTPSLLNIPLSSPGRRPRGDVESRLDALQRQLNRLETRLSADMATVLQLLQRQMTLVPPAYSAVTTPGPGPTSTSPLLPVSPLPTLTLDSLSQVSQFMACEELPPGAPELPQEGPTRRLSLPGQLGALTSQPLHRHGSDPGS
With `O=C(COC(=O)c1ccc(F)cc1)NCc1ccc(F)cc1` the “hERG current change (%, negative = inhibition) at 10uM” value was 2.23%. In the case of `O=C(O)/C(=C\c1cccc(OCc2ccccc2)c1)c1ccc(F)cc1`, the “hERG current change (%, negative = inhibition) at 10uM” value is reported as 3.19%. `O=C(NOC(=O)c1ccccc1)c1ccccc1` was tested, and the “hERG current change (%, negative = inhibition) at 10uM” value was 15%. With `c1ccc2nc3c(nc2c1)CCc1nonc1-3` the “hERG current change (%, negative = inhibition) at 10uM” value was -12.1%. For `O=[N+]([O-])c1ccc2[nH]c(O)c(N=NC(=S)Nc3cccnc3)c2c1`, the “hERG current change (%, negative = inhibition) at 10uM” value was 9.27%. In the case of `CN1CCN(Cc2c(O)ccc3occ(C(=O)c4ccccc4)c23)CC1`, the “hERG current change (%, negative = inhibition) at 10uM” value is reported as -39.3%. For `CN1CCc2c(sc(NC(=O)Cc3ccc(F)cc3)c2C(N)=O)C1.Cl`, the “hERG current change (%, negative = inhibition) at 10uM” value was 0.15%. `Cc1nc(SCc2cccc(C(=O)O)c2)nc2c1CCCC2` was tested, and the “hERG current change (%, negative = inhibition) at 10uM” value was 11.4%. `COc1ccc2nc(NC(=O)C3CCCN(S(=O)(=O)c4cccc5nsnc45)C3)sc2c1` (centres unmarked) was tested, and the “hERG current change (%, negative = inhibition) at 10uM” value was -14.5%. For `CCN(CC)CCCNC(=O)c1c(O)c2ccccc2n(Cc2ccccc2)c1=O.Cl`, the “hERG current change (%, negative = inhibition) at 10uM” value was -63.8%. For `CCSc1ncc(/C=N/Nc2ccc([N+](=O)[O-])cc2)n1C`, the “hERG current change (%, negative = inhibition) at 10uM” value was 6.72%. `Cc1ccccc1NC(=O)CC(=O)Nc1ccccc1C` was tested, and the “hERG current change (%, negative = inhibition) at 10uM” value was 19.6%. For `Cc1ccccc1C(=O)Nc1cc(S(=O)(=O)N2CCCCC2)ccc1N1CCN(C)CC1`, the “hERG current change (%, negative = inhibition) at 10uM” value was -37.4%. In the case of `O=C(c1ccccc1NS(=O)(=O)c1ccccc1[N+](=O)[O-])N1CCOCC1`, the “hERG current change (%, negative = inhibition) at 10uM” value is reported as 16.3%. `Cc1cc(CN2CCCC(CNC(=O)c3ccc(F)cc3)C2)cc(C)c1O` (centres unmarked) was tested, and the “hERG current change (%, negative = inhibition) at 10uM” value was -24.1%. For `CCOc1ccc(S(=O)(=O)Nc2ccccc2C(=O)NCc2ccco2)cc1`, the “hERG current change (%, negative = inhibition) at 10uM” value was -21.2%. With `O=C(c1ccccc1)N1CCN(S(=O)(=O)c2ccccc2)CC1` the “hERG current change (%, negative = inhibition) at 10uM” value was -0.192%. For `COc1ccccc1C(=O)Nc1ccccc1C(=O)NC1CCCCC1`, the “hERG current change (%, negative = inhibition) at 10uM” value was -1.19%. In the case of `O=C(NC(=S)Nc1ccccc1O)c1cccnc1`, the “hERG current change (%, negative = inhibition) at 10uM” value is reported as 18.2%. In the case of `CCCCSc1nc2sc3c(c2c(=O)n1-c1ccccc1)CCN(C)C3`, the “hERG current change (%, negative = inhibition) at 10uM” value is reported as -13.8%. For `CCOC(=O)c1ccc(NC(=S)NC(=O)c2nn(CC)cc2Br)cc1`, the “hERG current change (%, negative = inhibition) at 10uM” value was 3.85%. In the case of `O=C(c1cc(Cl)ccc1Cl)N1CCc2ccccc21`, the “hERG current change (%, negative = inhibition) at 10uM” value is reported as -9.85%. For `CCCCNC(=O)c1onc(CSc2ccccc2CC)c1C(=O)O`, the “hERG current change (%, negative = inhibition) at 10uM” value was 9.09%. For `CCOCCCNc1nc2c(c(=O)n(C)c(=O)n2C)n1CCCc1ccccc1`, the “hERG current change (%, negative = inhibition) at 10uM” value was -5.32%. With `COc1cccc(CNC(=O)CCC2CCCN(C(=O)c3ccc(OC)c(F)c3)C2)c1` (centres unmarked) the “hERG current change (%, negative = inhibition) at 10uM” value was -9.79%. `CCOc1ccc(N2C(=O)CC(n3ccc(C)n3)C2=O)cc1` (centres unmarked) was tested, and the “hERG current change (%, negative = inhibition) at 10uM” value was 9.83%. For `Cc1cc(CN(C)C(=O)c2cc(COc3ccc4ncccc4c3)on2)on1`, the “hERG current change (%, negative = inhibition) at 10uM” value was -4.72%. For `Cc1ccc(Cl)c(NC(=O)COC(=O)CNS(=O)(=O)/C=C/c2ccccc2)c1Cl`, the “hERG current change (%, negative = inhibition) at 10uM” value was 12%. `CCN(CC)c1cc2nonc2c2nonc12` was tested, and the “hERG current change (%, negative = inhibition) at 10uM” value was -1.27%. `C=CCn1c(=NC(=O)C2CCCCC2)sc2cc(NC(C)=O)ccc21` was tested, and the “hERG current change (%, negative = inhibition) at 10uM” value was -2.15%. For `CCc1nc(C)ccc1OCC(=O)NCCCN(C)C.O=C(O)C(=O)O`, the “hERG current change (%, negative = inhibition) at 10uM” value was 4.48%. With `Cc1ccc(-n2c(C)nnc2SC(C)C(=O)N2CCCC2)cc1` (centres unmarked) the “hERG current change (%, negative = inhibition) at 10uM” value was 12.4%. In the case of `CC(NC(=O)OCc1ccccc1)C(=O)Oc1cc2oc(=O)cc(-c3ccccc3)c2cc1Cl` (centres unmarked), the “hERG current change (%, negative = inhibition) at 10uM” value is reported as 8.91%. `Cc1cc(C)n(-c2ccc(C(=O)Nc3nc4ccccc4s3)cc2)n1` was tested, and the “hERG current change (%, negative = inhibition) at 10uM” value was 11.4%. With `O=[N+]([O-])c1ccc(N2CCN(c3ccccc3)CC2)nc1` the “hERG current change (%, negative = inhibition) at 10uM” value was 4.96%. For `CCC(=O)c1ccc(O)cc1`, the “hERG current change (%, negative = inhibition) at 10uM” value was 11.7%. `O=C(CN1C(=O)NC2(CCCC2)C1=O)N1CCN(c2ccccc2O)CC1` was tested, and the “hERG current change (%, negative = inhibition) at 10uM” value was 0.336%. With `O=C(COc1nc2ccccc2nc1N1CCOCC1)NCC(F)(F)F` the “hERG current change (%, negative = inhibition) at 10uM” value was 0.307%. For `Cc1noc(C)c1COc1ccc(C(=O)OCC(=O)OC(C)(C)C)cc1`, the “hERG current change (%, negative = inhibition) at 10uM” value was 3.21%. For `NS(=O)(=O)c1ccc(CCNC(=O)C(c2ccccc2)c2ccccc2)cc1`, the “hERG current change (%, negative = inhibition) at 10uM” value was 14.3%. With `COc1ccc(-n2c(SCC(N)=O)nc3sc4c(c3c2=O)CCN(C)C4)cc1` the “hERG current change (%, negative = inhibition) at 10uM” value was 10.2%. For `CC1=C(C(=O)Nc2ccccc2)C2(CCCCC2)C(C#N)=C(S)N1`, the “hERG current change (%, negative = inhibition) at 10uM” value was 17.5%. `CC(Oc1ccccc1)C(=O)Nc1oc(-c2ccco2)c(-c2ccco2)c1C#N` (centres unmarked) was tested, and the “hERG current change (%, negative = inhibition) at 10uM” value was 15.9%. In the case of `Cc1ccc(C)c(-n2c(Cc3cc(=O)[nH]c(=O)[nH]3)nnc2SCC(=O)NCc2ccco2)c1`, the “hERG current change (%, negative = inhibition) at 10uM” value is reported as 4.83%.

From article PMC4336329 (PLoS ONE, 2015)
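Also: peak tail current of the secondary pulse compared with the same well before compound.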
